Reference: publication PMC4336329 (PLoS ONE, 2015)
Out of some 310,000 compounds screened, about 14,000 (4.5%) showed an effect of 50% or more. Effects have a minus sign here. The list shows a part of the results.

Target: human ether-à-go-go-related gene (hERG) potassium channel (human, UniProt Q12809)
Assay: primary screen, population patch clamp on CHO cells stably expressing hERG
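Further: peak tail current of the secondary pulse compared with the same well before compound.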

human ether-à-go-go-related gene (hERG) potassium channel, sequence (Q12809 whole entry, looked up): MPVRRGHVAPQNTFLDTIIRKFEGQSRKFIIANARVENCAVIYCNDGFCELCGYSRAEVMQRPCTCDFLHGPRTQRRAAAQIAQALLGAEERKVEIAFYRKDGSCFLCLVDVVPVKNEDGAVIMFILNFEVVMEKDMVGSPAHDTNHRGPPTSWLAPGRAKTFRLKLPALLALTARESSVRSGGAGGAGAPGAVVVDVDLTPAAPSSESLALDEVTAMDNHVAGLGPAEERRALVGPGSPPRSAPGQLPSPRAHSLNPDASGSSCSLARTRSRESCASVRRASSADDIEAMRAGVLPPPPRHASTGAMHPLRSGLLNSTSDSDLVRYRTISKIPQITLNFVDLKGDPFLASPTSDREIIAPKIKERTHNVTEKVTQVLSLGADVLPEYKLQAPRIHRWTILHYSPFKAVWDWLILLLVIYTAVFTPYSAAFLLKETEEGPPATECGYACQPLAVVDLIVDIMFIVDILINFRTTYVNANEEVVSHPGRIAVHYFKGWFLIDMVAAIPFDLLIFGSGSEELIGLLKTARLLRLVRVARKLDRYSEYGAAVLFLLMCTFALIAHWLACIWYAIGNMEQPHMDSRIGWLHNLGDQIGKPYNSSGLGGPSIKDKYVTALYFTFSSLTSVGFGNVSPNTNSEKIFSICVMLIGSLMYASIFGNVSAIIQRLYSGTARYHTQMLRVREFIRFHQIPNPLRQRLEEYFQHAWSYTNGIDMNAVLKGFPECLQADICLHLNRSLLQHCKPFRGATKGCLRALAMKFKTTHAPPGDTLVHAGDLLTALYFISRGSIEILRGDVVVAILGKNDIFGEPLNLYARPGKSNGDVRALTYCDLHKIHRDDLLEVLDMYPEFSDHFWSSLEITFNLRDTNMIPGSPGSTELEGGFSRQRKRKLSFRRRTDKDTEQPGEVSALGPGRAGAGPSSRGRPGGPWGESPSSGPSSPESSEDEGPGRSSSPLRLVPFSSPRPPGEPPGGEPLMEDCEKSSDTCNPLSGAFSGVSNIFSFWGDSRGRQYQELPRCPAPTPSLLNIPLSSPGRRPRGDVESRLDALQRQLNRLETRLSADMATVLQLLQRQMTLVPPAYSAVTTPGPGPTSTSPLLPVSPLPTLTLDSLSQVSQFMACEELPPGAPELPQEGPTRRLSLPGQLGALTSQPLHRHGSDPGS

Structure (SMILES)	hERG current change (%, negative = inhibition) at 10uM
Cc1nnc(SCc2nc3sc4c(c3c(=O)[nH]2)CCCC4)n(N)c1=O	1.55%
CN(CC(=O)NC1CCCC1)S(=O)(=O)c1cnc[nH]1	25.1%
S=C(NCCc1ccccc1)NC1CCCCCC1	-13.7%
COC(=O)c1ccccc1COn1c(=O)c[n+]([O-])c2ccccc21	-25.7%
COc1ccccc1N1CCN(C(c2cc3cc(C)ccc3[nH]c2=O)c2nnnn2C2CCCC2)CC1 (centres unmarked)	-13.1%
CCOc1ccc(N2CC(C(=O)Nc3c(C)n(C)n(-c4ccccc4)c3=O)CC2=O)cc1 (centres unmarked)	22.6%
CCOCCCNC(=S)NNC(=O)CCn1nc(C)c(Br)c1C	6.63%
CCOc1ccc2nc(NC(NC(=O)CC)(C(=O)OC)C(F)(F)F)sc2c1 (centres unmarked)	-17.7%
Cc1ccc(-c2nnn(CC(=O)N(c3ccccc3)C(C(=O)NC3CCCC3)c3ccco3)n2)o1 (centres unmarked)	-20.9%
CN1CCN(CC(=O)N2N=C(c3cccs3)CC2c2ccco2)CC1 (centres unmarked)	-31.1%
CCn1ccnc1CN(C)C(=O)c1cc(COc2ccc(OC)c3ccccc23)on1	-25.9%
CNS(=O)(=O)c1ccc(Oc2ccc(S(=O)(=O)NC)cc2)cc1	13.2%
CN1CCN(c2c([N+](=O)[O-])cnc3ccccc23)CC1.Cl	-11.8%
CCc1ccccc1NC(=S)N(CCN(C)C)C(C)c1ccccn1 (centres unmarked)	-30.8%
CCOC(=O)COc1ccc2c(c1)C(=O)CC1(CCCCC1)O2	-1.25%
CCCCC(=O)NC(c1cccc([N+](=O)[O-])c1)c1c(OC(C)=O)ccc2ccccc12 (centres unmarked)	-5.12%
Cc1cc(=O)oc(C)c1C(=O)Nc1cnc2ccccc2c1	-21.2%
CCS(=O)(=O)N1CCCC(C(=O)NCc2cccc(OC)c2)C1 (centres unmarked)	0.215%
CC(C)c1oc(=O)cc2c1[C@@H](O)[C@H]1OC(=O)[C@@]3(C)CC[C@@H](O)[C@@]2(C)C13 (some centres unmarked)	10.2%
CCOc1ccc(C(=S)N2CCN(C)CC2)cc1	-82.2%
O=C(CN1CCN(S(=O)(=O)c2cccc(Br)c2)CC1)N1CCCCC1	-14.8%
O=C(Cc1ccc(Br)cc1)N1CCN(Cc2ccccc2)CC1	-30.9%

Structure (SMILES)	hERG current change (%, negative = inhibition) at 10uM
O=C(COc1ccc(C(=O)c2ccccc2)cc1)NC1CCCCCC1	-21.9%
O=C(CSc1nnc(-c2ccc(Cl)cc2Cl)n1C1CCCCC1)NC1CCS(=O)(=O)C1 (centres unmarked)	-23.2%
Cc1ccc(OCC(=O)NC2CCS(=O)(=O)C2)cc1 (centres unmarked)	1.19%
CN(Cc1ccccc1F)C(=O)CCCNC(=O)c1ccc(Cl)cc1	-19.8%
CC(C)OCCCNC(=O)C(=O)N/N=C/c1ccc(OCc2ccccc2)cc1	13.2%
COCCCN(CC(=O)Nc1ccc(N2CCOCC2)cc1)S(=O)(=O)c1ccc(Cl)cc1	-1.73%
COc1ccc(N2C(=O)C3C4C=CC(C5CC45)C3C2=O)c([N+](=O)[O-])c1 (centres unmarked)	6.48%
O=C1NC(=S)S/C1=C\c1ccc2ccccc2c1	18.7%
Cc1cccc(NC(=O)c2ccc3c(Cl)c4c(nc3c2)CCCC4)n1	-1.74%
Cn1c(N)c(C(=O)COC(=O)/C=C/c2cccc(C(F)(F)F)c2)c(=O)n(C)c1=O	-2.29%
Cc1ccccc1C(=O)Oc1ccccc1C(=O)N1CCOCC1	-1.36%
Cc1ccccc1Nc1nc(N)nc(-c2oc3ccccc3c2C)n1	4.69%
C=CCn1c(=O)c(C(=O)NCc2ccc(Cl)cc2)c(O)c2ccccc21	13.4%
CCOc1ccc(CNC(=O)C2CC(=O)N(C3CCCC3)C2)cc1OC (centres unmarked)	9.05%
CCOC(=O)CN1C(=O)S/C(=C/c2cccc([N+](=O)[O-])c2O)C1=O	9.42%
Cc1cc(C)n(-c2nc(C(F)(F)F)nc3ccccc23)n1	13%
COc1ccc(S(=O)(=O)N(C)c2ccc(C(=O)Nc3cccnc3)cc2)cc1	-40.3%
COc1cc2c(cc1N/C=C(\C#N)c1nc(-c3ccc(F)cc3)cs1)oc1ccccc12	-46.5%
CCn1cc(S(=O)(=O)NCc2ccc(OC)cc2)cn1	4.14%
O=C(Nc1nc2ccccc2[nH]1)c1cccc(Cl)c1	17.5%
Cc1c(C(=O)N2CCCCC2)c(S(=O)(=O)NCc2ccccc2Cl)c(C)n1C	5.54%
Cc1nn2cc(-c3ccc(-c4ccccc4)cc3)nc2s1	12.4%

Structure (SMILES)	hERG current change (%, negative = inhibition) at 10uM
COc1cccc(NC(=O)Cn2c3ccccc3c3nc4n(c(=O)c32)CCS4)c1	0.357%
Cc1cc(C(=O)OCC(=O)NC(=O)c2cccn2C)c2ccccc2n1	15.7%
NNc1nc2c(-c3cccc(C(F)(F)F)c3)nnn2c2ccccc12	20.5%
C/C(=N\NC(=O)Cc1ccc(Cl)cc1)c1ccccn1	-14.6%
COc1ccccc1N1CCN(S(=O)(=O)c2c(C)[nH]c(C)c2C(=O)N2CCCC2)CC1	12.4%
CN1CCN(/N=C/c2ccc(Cl)c(Cl)c2)CC1	-36.4%
CCn1c(CNC(=O)c2ccccc2F)nnc1SCC(=O)NC1CCCCC1	13.6%
CCOC(=O)CSc1nc2ccccc2c(=O)n1CCC(=O)NCCc1ccc(OC)c(OC)c1	-23.2%
COc1ccc(OC)c(CNC(=O)C2CCN(S(=O)(=O)N3CCCCC3)CC2)c1	-8.39%
Cc1cc(=O)[nH]c(N/N=C/C2=C(N3CCOCC3)C(=C\c3ccc(Cl)cc3)/CC2)n1	-2.89%
O=C(NCC1CCCO1)c1ccc2c(=O)n(CC3CCCO3)c(=S)[nH]c2c1 (centres unmarked)	6.52%
COc1ccc(OC)c(-n2c(-c3cc(-c4ccccc4)n[nH]3)n[nH]c2=S)c1	14.9%
COc1ccc(S(=O)(=O)NCCS(=O)(=O)N2CCN(c3ccccc3)CC2)cc1	-10%
O=C(N/N=C/c1ccc2nccnc2c1)c1cccc([N+](=O)[O-])c1	-9.36%
CCCn1c(=O)c2c(nc3n2CCCN3CCc2ccc(OC)c(OC)c2)n(C)c1=O	-23.7%
O=C(N/N=C1\CCCc2ccccc21)c1cccc([N+](=O)[O-])c1	-11%
Cc1cc(N2C(=O)C=CC2=O)c([N+](=O)[O-])cc1C	-3.55%
NC(=O)CC(NC(=O)Cc1ccc(Cl)cc1)c1ccc(NC2CCN(Cc3ccccc3)CC2)c([N+](=O)[O-])c1 (centres unmarked)	-18.5%
O=C(CC1C(=O)NCCN1C(=O)Nc1ccccc1)Nc1cc(Cl)ccc1Cl (centres unmarked)	2.57%
O=C(NCCc1ccccc1C(F)(F)F)C1CCC(=O)N(CCCN2CCCC2=O)C1 (centres unmarked)	17.9%
O=C(CCNC(=O)c1ccc(Br)o1)NCc1ccc(Cl)cc1	-22.4%
COc1cc(OC)cc(C(=O)N2CCC(n3c(C)nc4cc(F)ccc43)CC2)c1	-59%

Structure (SMILES)	hERG current change (%, negative = inhibition) at 10uM
NC1=NC(=O)S/C1=C\c1ccc(F)cc1	4.55%
CSc1nnc(-c2ccc(S(=O)(=O)N3CCCCC3)cc2)o1	-2.26%
Cc1cccc(C)c1NC(=O)C1C2C=CC(C2)C1C(=O)NCc1ccccn1 (centres unmarked)	-0.849%
Cn1c(Cn2c(=O)sc3ccccc32)nnc1SCC(=O)Nc1ccc(F)cc1	7.02%
Fc1cccc(COc2ccccc2CNc2ccccc2)c1	0.968%
COc1ccc(CCNC(=O)CSc2nc3ccccc3c3nc(CCN4CCCCC4)nn23)cc1OC	-14.3%
COc1ccc(CN(CC2CCCO2)C(=O)CN2C(=O)C(C)Oc3ccc(C)cc32)cc1OC (centres unmarked)	-26.7%
CCOC(=O)N1CCN(CC(=O)c2ccc(O)c(C)c2O)CC1	20.9%
CN(C)c1ccc(/C=c2\sc3n(c2=O)CCCN=3)cc1	1.12%
CN1C(=O)C(C)(C)c2cc(S(=O)(=O)N3CCN(c4cccc(Cl)c4)CC3)ccc21	-15.5%
C[C@@H](C(=O)NCc1ccccc1)N1C(=O)C2CC=CCC2C1=O (some centres unmarked)	0.932%
CC(=O)N(Cc1ccc(F)cc1)Cc1nc2ccccc2c(=O)[nH]1	-21%
CCOC(=O)c1cccnc1SCC(=O)NC(C)CC (centres unmarked)	10.4%
Cc1ccc(-c2nnn(CC(=O)N(Cc3ccco3)C(C(=O)NC(C)(C)C)c3ccncc3)n2)o1 (centres unmarked)	8.07%
Cc1ccccc1C(=O)Nc1ccc(CN2CCOCC2)cc1	7.71%
O=S1(=O)CCO[C@H]2Cc3ccccc3[C@H]2N1Cc1ccc(F)cc1	-20.4%
CC(=O)c1c(C)[nH]c(C(=O)O)c1C	5.08%
COCC1CCN(C(=O)CCc2nnc(C3(c4ccc(Cl)cc4)CCC3)o2)CC1	-14.9%
CCOC(=O)N1CCN(S(=O)(=O)c2ccc3c(c2)C(C)C(=O)N3)CC1 (centres unmarked)	2.26%
CCCCNC(=S)Nc1cccc2cnccc12	-4.25%
